# According to the supplement of paper PMC7826260:
# Some of the results follow. Cleavage of a single-stranded DNA pool by Rep nickase domains was read by sequencing (3 µM enzyme, 1 h, 37 °C); shown is the middle of each 90-letter strand. Uncut reads are compared with the no-enzyme pool on a log2 scale; uncut sequences lie near 0, cut ones below; no hit call is given. Shares of all reads are compared, so uncut sequences can rise above 0 when many others are cut.
# Key:
# Assay in all cases: uncleaved DNA left, log2 of reads against the no-enzyme library (log2 ratio); higher = less cleavage (more negative = more Rep cleavage of the k-mer); sequences stand for … in CTCGTCCG…ACCGGAGA
# [1] = test system: T1, Rep nickase domain of Muscovy duck circovirus
# T1 sequence (Rep 1-111, printed without the tag): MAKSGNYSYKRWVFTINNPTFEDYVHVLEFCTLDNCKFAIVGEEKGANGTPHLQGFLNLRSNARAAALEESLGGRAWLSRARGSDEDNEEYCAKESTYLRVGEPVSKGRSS
# Method: (§1)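 A pool of 90-nt single-stranded DNAs with seven random bases just before the constant AC of the nick site (name = the seven bases) was cut by 3 µM recombinant His6-SUMO-tagged Rep nickase domain (300 nM DNA, 50 mM HEPES pH 8.0, 50 mM NaCl, 1 mM MnCl2, 1 h, 37 °C, three replicates). Uncut DNA was amplified and sequenced.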
# [2] = test system: T2, Rep nickase domain of banana bunchy top virus
# T2 sequence (Rep 1-94, printed without the tag): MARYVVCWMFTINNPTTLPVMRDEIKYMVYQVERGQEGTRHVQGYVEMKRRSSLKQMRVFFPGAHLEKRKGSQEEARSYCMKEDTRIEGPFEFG
# Method: as §1
# [3] = test system: T3, Rep nickase domain of cabbage leaf curl virus
# T3 sequence (Rep 1-116, printed without the tag): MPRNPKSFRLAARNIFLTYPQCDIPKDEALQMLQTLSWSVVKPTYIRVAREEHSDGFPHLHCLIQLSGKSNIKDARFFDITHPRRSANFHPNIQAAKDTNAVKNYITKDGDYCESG
# Method: as §1
# [4] = test system: T4, Rep nickase domain of chickpea chlorotic dwarf virus
# T4 sequence (Rep 1-124, printed without the tag): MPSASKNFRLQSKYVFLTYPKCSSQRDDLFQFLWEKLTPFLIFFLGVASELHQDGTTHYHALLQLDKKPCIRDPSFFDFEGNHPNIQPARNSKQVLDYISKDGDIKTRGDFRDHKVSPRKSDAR
# Method: as §1
# [5] = test system: T5, Rep nickase domain of faba bean necrotic yellows virus
# T5 sequence (Rep 1-98, printed without the tag): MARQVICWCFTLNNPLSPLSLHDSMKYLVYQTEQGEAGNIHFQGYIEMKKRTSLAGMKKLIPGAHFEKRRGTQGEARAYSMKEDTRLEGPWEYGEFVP
# Method: as §1
# [6] = test system: T6, Rep nickase domain of maize striate mosaic virus
# T6 sequence (Rep 1-117, printed without the tag): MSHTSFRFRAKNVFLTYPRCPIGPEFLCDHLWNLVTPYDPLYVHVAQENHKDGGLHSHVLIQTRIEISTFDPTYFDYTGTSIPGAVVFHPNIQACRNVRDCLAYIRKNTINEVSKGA
# Method: as §1
# [7] = test system: T7, Rep nickase domain of porcine circovirus 2
# T7 sequence (Rep 2-116, printed without the tag): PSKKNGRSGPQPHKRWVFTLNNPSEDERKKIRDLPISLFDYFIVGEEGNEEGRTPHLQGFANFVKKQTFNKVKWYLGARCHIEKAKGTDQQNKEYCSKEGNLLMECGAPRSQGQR
# Method: as §1
# [8] = test system: T8, Rep nickase domain of tomato golden mosaic virus
# T8 sequence (Rep 1-124, printed without the tag): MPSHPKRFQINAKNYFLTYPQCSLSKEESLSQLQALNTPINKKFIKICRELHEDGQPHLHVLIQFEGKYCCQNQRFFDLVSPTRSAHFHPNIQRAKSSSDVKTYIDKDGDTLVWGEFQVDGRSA
# Method: as §1
# [9] = test system: T9, Rep nickase domain of tomato yellow leaf curl virus
# T9 sequence (Rep 1-136, printed without the tag): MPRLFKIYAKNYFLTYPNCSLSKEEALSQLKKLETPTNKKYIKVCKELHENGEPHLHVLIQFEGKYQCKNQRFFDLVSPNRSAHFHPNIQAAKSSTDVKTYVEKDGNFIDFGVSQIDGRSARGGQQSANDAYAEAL
# Method: as §1
# [10] = test system: T10, Rep nickase domain of wheat dwarf virus
# T10 sequence (Rep 1-137, printed without the tag): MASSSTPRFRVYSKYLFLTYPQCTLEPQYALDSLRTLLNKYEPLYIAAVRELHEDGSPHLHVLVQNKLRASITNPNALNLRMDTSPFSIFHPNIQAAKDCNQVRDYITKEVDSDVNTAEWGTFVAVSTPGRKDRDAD
# Method: as §1
Sequence,uncleaved DNA left (log2) [1],uncleaved DNA left (log2) [2],uncleaved DNA left (log2) [3],uncleaved DNA left (log2) [4],uncleaved DNA left (log2) [5],uncleaved DNA left (log2) [6],uncleaved DNA left (log2) [7],uncleaved DNA left (log2) [8],uncleaved DNA left (log2) [9],uncleaved DNA left (log2) [10]
ACGTCCT,-0.189,0.0223,-0.261,-1.78,-0.106,-0.498,-1.45,-0.0546,-0.134,-0.2
TATATGT,-0.192,-0.348,-0.21,-1.01,-0.0348,-0.636,-0.81,-0.0655,-0.039,-0.0355
GAATATC,0.0156,-0.0316,-2.39,-2.09,-0.0424,-0.212,-0.238,-0.475,0.0577,-0.486
TCCAGTC,-0.137,-0.241,-0.0783,-0.493,-0.0662,-1.04,-0.0797,-0.107,-0.204,-0.33
ATTAATG,0.00587,0.0255,-0.611,-0.618,0.0065,-1.1,0.19,0.0874,0.143,0.013
CGTAATG,0.0321,-0.0196,-0.102,0.499,0.0508,1.02,0.0218,-0.0253,-0.0797,-0.0359
AGATAAG,0.0464,0.152,-0.778,-0.032,0.131,-1,0.181,-0.0375,0.0441,0.00265
GTACGGT,-0.0134,0.00898,0.393,1.04,-0.156,1.9,0.043,0.106,-0.0841,0.0665
TAGTCAA,0.00142,0.00299,0.189,-0.248,-0.00764,0.0199,-2.49,0.0945,0.157,0.0715
GTCGTTG,0.0641,0.0503,0.247,0.721,-0.0342,1.52,0.0734,0.0925,-0.0377,0.00446
AGGTCAA,0.056,0.143,0.405,0.691,0.0549,0.697,0.124,0.0443,0.0609,0.119
CTATCAG,0.0396,0.182,-0.71,-0.279,0.137,-1.03,0.237,0.162,0.0905,-0.0509
GGAGAAT,0.0946,0.0835,0.83,1.9,0.128,2.25,0.229,0.0729,0.0414,0.159
TTGCGAA,-0.0241,0.00282,-0.783,0.0907,0.0214,-0.8,0.0849,-0.0522,0.109,-0.00787
GATGAGA,0.174,0.108,0.163,0.363,0.171,-0.0862,0.163,0.126,0.0916,0.112
CGGAGAG,0.0388,-0.0955,-0.211,0.0271,-0.072,-0.455,-0.0225,0.0195,-0.136,-0.0461
CAAACCT,-0.0337,-0.0194,-2.45,-2.73,0.0451,-1.02,-1.16,-0.432,0.0536,-0.628
TTATATT,-3.75,-2.9,-3.88,-3.66,-0.637,-2.56,-3.57,-3.39,-0.194,-3.53
CATTGTC,-0.0267,-0.209,-0.876,-0.203,0.0353,-1.08,-0.02,-0.182,0.116,-0.0937
GCTCCTG,0.0731,0.173,0.0634,0.287,-0.0516,0.288,0.0825,0.00987,0.0618,0.0994
AATATAA,-0.06,0.0303,-0.215,-0.439,-0.00869,-0.594,-0.117,0.0113,-0.00583,0.0216
CCCTCCC,-0.156,-0.216,-0.00492,-0.336,-0.0973,-0.135,-0.211,-0.152,-0.235,-0.273
AAGCAGG,0.0886,0.036,0.0601,0.35,0.114,-0.0868,0.253,0.174,-0.0577,0.0638
GCACCAA,-0.0921,0.0168,0.0169,0.227,-0.0804,0.00134,-0.0431,-0.104,-0.00739,0.0235
TGGGGGC,0.0406,0.0352,0.808,1.5,-0.0669,2,0.247,0.0955,-0.0464,0.102
GGGGTCC,-0.0463,-0.0558,0.603,1.52,-0.0513,1.95,0.115,-0.0665,0.034,0.096
CTGCTCG,-0.145,-0.213,-0.915,-0.391,-0.0886,-0.972,-0.0287,-0.145,-0.098,-0.337
ACTTCCC,-0.0613,-0.0588,-0.13,-0.0829,0.086,-0.491,-0.136,-0.0341,-0.0168,-0.0655
GTTACAG,-0.0384,0.151,0.0503,-0.586,-0.0376,0.188,0.0766,-0.0514,0.0686,0.13
TCGCCTC,-0.067,-0.0826,0.143,0.156,-0.094,0.368,-0.0262,0.00809,-0.107,-0.0383
